Enrichment ratio data for 195 variants are collected here from a collection of fitness landscapes (doi:10.1126/science.1257360).

Sequences and labels used below:
B1: PhoQ; a variant is named by its letters at X, in order, P23837 (parent)
chain: MKKLLRLFFPLSLRVRFLLATAAVVLVLSLAYGMVALIGYSVSFDKTTFRLLRGESNLFYTLAKWENNKLHVELPENIDKQSPTMTLIYDENGQLLWAQRDVPWLMKMIQPDWLKSNGFHEIEADVNDTSLLLSGDHSIQQQLQEVREDDDDAEMTHSVAVNVYPATSRMPKLTIVVVDTIPVELKSSYMVWSWFIYVLSANLLLVIPLLWVAAWWSLRPIEALAKEVRELEEHNRELLNPATTRELTSLVRNLNRLLKSERERYDKYRTTLTDLTHSLKTPLXXLQXXLRSLRSEKMSVSDAEPVMLEQISRISQQIGYYLHRASMRGGTLLSRELHPVAPLLDNLTSALNKVYQRKGVNISLDISPEISFVGEQNDFVEVMGNVLDNACKYCLEFVEISARQTDEHLYIVVEDDGPGIPLSKREVIFDRGQRVDTLRPGQGVGLAVAREITEQYEGKIVAGESMLGGARMEVIFGRQHSAPKDE

The list shows a part of the results.

In this assay the parent is B1. As to the kind of experiment: enrichment ratio after two sorts for PhoP signalling (ratio (wild type AVST 3.29)); higher = more functional. The conditions noted are these: with PhoP (E. coli).
For the variant IKPV, the enrichment ratio was ≤ 0.25.

With HIVC, the enrichment ratio was ≤ 0.25. Regarding SQQY, the enrichment ratio was ≤ 0.25. With IYCR, the enrichment ratio is ≤ 0.25. As to EECP, the enrichment ratio was ≤ 0.25. For LQLI the value was ≤ 0.25. For MHRW the value was ≤ 0.25; for DTCD, ≤ 0.25. For FMDP the value was ≤ 0.25. As to VFQQ, the enrichment ratio is ≤ 0.25. For HTWS the value was ≤ 0.25; for HGDI, ≤ 0.25. On to RAPG, for which the enrichment ratio was ≤ 0.25.

Consider HDEG, for which the enrichment ratio was ≤ 0.25. For VHIP the value was ≤ 0.25; for HMQA, ≤ 0.25. In the case of EELN, the enrichment ratio was ≤ 0.25.

Consider RAAY, for which the enrichment ratio was ≤ 0.25. In the case of MKHA, the enrichment ratio is ≤ 0.25. The figure for LHGY is ≤ 0.25.

LDEK: the enrichment ratio was ≤ 0.25. For the variant PISP, the enrichment ratio is ≤ 0.25.

For MYMT, the enrichment ratio was ≤ 0.25.

As for EKFP, the enrichment ratio was ≤ 0.25. The figure for ITWE is ≤ 0.25; for FKIR it is ≤ 0.25.

Regarding YEEG, the enrichment ratio is ≤ 0.25. On to LCFE, for which the enrichment ratio was ≤ 0.25. On to DGTE, for which the enrichment ratio is ≤ 0.25. In the case of VPFI, the enrichment ratio was ≤ 0.25. In the case of YEDI, the enrichment ratio was ≤ 0.25.

DGVS: the enrichment ratio was ≤ 0.25. For the variant KAFK, the enrichment ratio is ≤ 0.25. For WPPN the value was ≤ 0.25; for SLPW, ≤ 0.25. The figure for AVVW is 7.9. The figure for YMVA is ≤ 0.25; for WSVL it is ≤ 0.25; for SPWA it is ≤ 0.25.

Turning to DRSN, the enrichment ratio was ≤ 0.25. For GNRM the value was ≤ 0.25; for FDAY, ≤ 0.25; for PSKP, ≤ 0.25. Take IGLW: the enrichment ratio is ≤ 0.25. For the variant ADNL, the enrichment ratio is ≤ 0.25. The figure for PMTR is ≤ 0.25; for DWGL it is ≤ 0.25; for TAPA it is ≤ 0.25. For the variant PHQY, the enrichment ratio is ≤ 0.25. In the case of WSTC, the enrichment ratio was ≤ 0.25. For QAKL, the enrichment ratio was ≤ 0.25. The figure for TKSF is 1.23; for MMMF it is ≤ 0.25; for TWGM it is ≤ 0.25. For PLDA the value was ≤ 0.25. With AECV, the enrichment ratio was determined as 21.4. Take VECR: the enrichment ratio was ≤ 0.25. For MKDW the value was ≤ 0.25; for HKQI, ≤ 0.25.

For the variant ESTK, the enrichment ratio was ≤ 0.25.

For MEWN, the enrichment ratio was ≤ 0.25. Consider PWNW, for which the enrichment ratio was ≤ 0.25. For YRVC the value was 0.653; for DQSM, ≤ 0.25. The figure for LEWT is 12.5; for GRDF it is ≤ 0.25; for KCVK it is ≤ 0.25. For the variant ALTA, the enrichment ratio is ≤ 0.25. For KNCR, the enrichment ratio was ≤ 0.25. Turning to YTPC, the enrichment ratio is ≤ 0.25.

For VQGN, the enrichment ratio was ≤ 0.25.

Consider FLAK, for which the enrichment ratio is ≤ 0.25.

KVYN: the enrichment ratio is ≤ 0.25.

With TYKS, the enrichment ratio was ≤ 0.25. For RIGN the value was ≤ 0.25; for PETY, ≤ 0.25. In the case of KECF, the enrichment ratio was ≤ 0.25. The figure for ECLM is ≤ 0.25.

In the case of APVN, the enrichment ratio is ≤ 0.25.

Take VRGF: the enrichment ratio is ≤ 0.25. Regarding YDCP, the enrichment ratio is ≤ 0.25.

As for TRRK, the enrichment ratio is ≤ 0.25. The figure for FLWK is ≤ 0.25; for QDMS it is ≤ 0.25. For YDCH the value was ≤ 0.25. For VAIK the value was ≤ 0.25; for NFNT, ≤ 0.25. Turning to DDDV, the enrichment ratio was ≤ 0.25. Consider AIKP, for which the enrichment ratio was ≤ 0.25.

In the case of RPQD, the enrichment ratio is ≤ 0.25.

In the case of VSMV, the enrichment ratio was determined as 9.73. Regarding RHQY, the enrichment ratio is ≤ 0.25. On to EIYS, for which the enrichment ratio was ≤ 0.25. Take WENY: the enrichment ratio was ≤ 0.25.

Consider WNLE, for which the enrichment ratio was ≤ 0.25. Consider YPAK, for which the enrichment ratio was ≤ 0.25. On to HWQP, for which the enrichment ratio is ≤ 0.25. For AQYM the value was ≤ 0.25; for YWIK, ≤ 0.25. The figure for SPCI is 2.03. The figure for AKAV is 0.73. Regarding HQTQ, the enrichment ratio was ≤ 0.25.

Consider QANK, for which the enrichment ratio is ≤ 0.25.

For the variant DYCH, the enrichment ratio was ≤ 0.25.

In the case of HLWL, the enrichment ratio is ≤ 0.25. For the variant RWPI, the enrichment ratio was ≤ 0.25. On to IPMK, for which the enrichment ratio was ≤ 0.25. The figure for DRHI is ≤ 0.25; for MNEW it is ≤ 0.25.

In the case of PCPI, the enrichment ratio was ≤ 0.25. The figure for QQMS is ≤ 0.25; for SMLF it is 6.71; for ALLC it is 1.19. For FEKG the value was ≤ 0.25; for LMNH, ≤ 0.25; for VRVK, ≤ 0.25.

For the variant RMCW, the enrichment ratio is ≤ 0.25. The figure for FMED is ≤ 0.25. Turning to WRQN, the enrichment ratio is ≤ 0.25. The figure for LVGR is ≤ 0.25. For HKLG the value was ≤ 0.25; for GYRA, ≤ 0.25. On to TFRV, for which the enrichment ratio is ≤ 0.25. The figure for KSGQ is ≤ 0.25; for TDNW it is ≤ 0.25. Turning to FQCW, the enrichment ratio was ≤ 0.25.

With ACGY, the enrichment ratio was ≤ 0.25. The figure for HCWR is ≤ 0.25; for RFSC it is ≤ 0.25. The figure for HGMT is ≤ 0.25; for MPMG it is ≤ 0.25; for SSKC it is ≤ 0.25. The figure for YGEG is ≤ 0.25; for TSAL it is 13. Regarding HFAC, the enrichment ratio is ≤ 0.25. For TWIC the value was ≤ 0.25; for TEFQ, 8.52. The figure for HLLH is ≤ 0.25. In the case of PLYL, the enrichment ratio was ≤ 0.25.

As for HHTP, the enrichment ratio was ≤ 0.25. Take LKEF: the enrichment ratio was ≤ 0.25. Turning to HIQG, the enrichment ratio is ≤ 0.25. As to ALLS, the enrichment ratio was determined as 1.84.

On to YPCI, for which the enrichment ratio was ≤ 0.25. As for GQVE, the enrichment ratio is ≤ 0.25.

QDIY: the enrichment ratio is ≤ 0.25. For LQDH the value was ≤ 0.25. YQYC: the enrichment ratio was ≤ 0.25. As for WDVH, the enrichment ratio was ≤ 0.25.

Turning to EYFP, the enrichment ratio was ≤ 0.25. In the case of DKAG, the enrichment ratio was ≤ 0.25.

As to EGVC, the enrichment ratio was ≤ 0.25. The figure for DYYQ is ≤ 0.25; for DLTF it is ≤ 0.25. The figure for EDMR is ≤ 0.25; for PRFE it is ≤ 0.25; for PRPQ it is ≤ 0.25. Take PQVI: the enrichment ratio is ≤ 0.25. The figure for DRPG is ≤ 0.25. The figure for KTLH is ≤ 0.25. Consider PFIK, for which the enrichment ratio amounted to 2.22. As for NRWQ, the enrichment ratio is ≤ 0.25. The figure for WATK is ≤ 0.25. The figure for WFIA is ≤ 0.25.

With PWIY, the enrichment ratio was ≤ 0.25.

With YLLT, the enrichment ratio is ≤ 0.25. In the case of RVAS, the enrichment ratio was ≤ 0.25. With RPGR, the enrichment ratio is ≤ 0.25. For DDHW the value was ≤ 0.25; for DAKF, ≤ 0.25; for YHTK, ≤ 0.25. For KHMV the value was ≤ 0.25; for DCDY, ≤ 0.25.

In the case of QQRV, the enrichment ratio is ≤ 0.25. For HRHP the value was ≤ 0.25; for WQVR, ≤ 0.25.

With IYTT, the enrichment ratio was ≤ 0.25. On to QFAI, for which the enrichment ratio was ≤ 0.25. Regarding PDHE, the enrichment ratio is ≤ 0.25. The figure for WDSM is ≤ 0.25; for NGTY it is ≤ 0.25. For LHKM the value was ≤ 0.25. For RDRR the value was ≤ 0.25; for NPFY, ≤ 0.25. With SHVD, the enrichment ratio was ≤ 0.25.

Consider RAIN, for which the enrichment ratio is ≤ 0.25. On to MFNS, for which the enrichment ratio was ≤ 0.25.

In the case of EFIP, the enrichment ratio is ≤ 0.25. For the variant NCFL, the enrichment ratio was ≤ 0.25. In the case of TAPI, the enrichment ratio was ≤ 0.25.

Turning to ARIV, the enrichment ratio was ≤ 0.25.

Turning to PIRG, the enrichment ratio is ≤ 0.25. NMWH: the enrichment ratio is ≤ 0.25. The figure for RACR is ≤ 0.25; for SMLR it is 1.96.
